# PubChem BioAssay AID488969 (Vanderbilt High Throughput Screening Facility, 2010)
# Whole data set: some 110,000 compounds, median “z-score” near -0.1, cut for the highest 2% near 2. Some of the results follow.
# Biological target: Metabotropic glutamate receptor 8 (Rattus norvegicus) (UniProt P70579)
# Assay: rat mGluR8 modulators via GIRK flux, primary screen, cell-based, thallium flux, HTS (AID 488969)
# Conditions: HEK293 rat mGluR8, GIRK (G protein-gated inwardly rectifying potassium channel) thallium flux, FluoZin2; at 10 µM; stronger effect = higher value; submaximal glutamate (EC20) added with thallium
# Chain of UniProt P70579 (P70579 whole entry, looked up): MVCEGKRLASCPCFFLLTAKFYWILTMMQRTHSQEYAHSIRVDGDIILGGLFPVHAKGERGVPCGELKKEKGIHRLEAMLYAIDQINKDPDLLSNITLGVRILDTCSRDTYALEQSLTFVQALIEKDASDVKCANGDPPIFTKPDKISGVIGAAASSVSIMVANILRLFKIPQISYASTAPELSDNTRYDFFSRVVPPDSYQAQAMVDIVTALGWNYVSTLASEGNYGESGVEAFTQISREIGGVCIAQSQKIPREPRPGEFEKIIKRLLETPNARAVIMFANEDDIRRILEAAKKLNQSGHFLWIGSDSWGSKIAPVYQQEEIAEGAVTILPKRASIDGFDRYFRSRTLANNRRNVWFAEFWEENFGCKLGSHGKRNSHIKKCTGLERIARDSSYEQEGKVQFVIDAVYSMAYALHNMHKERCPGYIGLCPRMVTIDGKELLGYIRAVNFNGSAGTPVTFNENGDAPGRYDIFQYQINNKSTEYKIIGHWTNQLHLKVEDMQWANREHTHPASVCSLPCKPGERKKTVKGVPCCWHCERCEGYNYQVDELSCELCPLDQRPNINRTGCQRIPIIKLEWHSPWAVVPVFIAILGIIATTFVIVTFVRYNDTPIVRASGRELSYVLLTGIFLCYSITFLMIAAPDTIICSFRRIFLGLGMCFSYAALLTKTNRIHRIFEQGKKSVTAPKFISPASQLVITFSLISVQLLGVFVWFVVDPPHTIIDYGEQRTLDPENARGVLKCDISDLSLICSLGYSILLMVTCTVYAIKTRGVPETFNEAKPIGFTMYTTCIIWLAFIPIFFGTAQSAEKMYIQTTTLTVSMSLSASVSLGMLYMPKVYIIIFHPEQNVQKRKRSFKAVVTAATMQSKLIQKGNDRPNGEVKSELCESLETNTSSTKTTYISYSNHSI
row,SMILES,z-score
1,Cc1ccccc1C1CC(c2ccccc2)Nc2ncnn21 (configuration not stated),-0.293
2,COc1ccc(CCC(C)Nc2cccc(C)c2)cc1 (configuration not stated),-0.178
3,CCOC(=O)/C(=C/c1c2ccccc2cc2ccccc12)NC(=O)c1ccccc1,-0.387
4,COc1ccccc1Nc1nc(N)nc(CSc2nccc(C)n2)n1,0.282
5,Cn1nc(-c2ccc(C(=O)Nc3cccc(Cl)c3)cc2)c2ccccc2c1=O,0.274
6,COc1ccccc1OCc1nc2c3c(-c4ccccc4)c(-c4ccccc4)oc3ncn2n1,-0.228
7,COc1ccc(Cc2nn3c(Cn4nnc5ccccc54)nnc3s2)cc1,-0.0414
8,O=c1c(-c2ccnn2-c2ccc(F)cc2)cnc2n1CCS2,-0.339
9,Cc1ccc(OCc2nnc(SCC(=O)Nc3ccc4c(c3)OCCO4)n2Cc2ccco2)cc1,-0.271
10,COC(=O)CN1C(=O)CSc2ncccc21,0.767
11,CCOc1ccc(NC(=S)N(CCCN2CCOCC2)Cc2cn(C)c3ccccc23)cc1,-0.232
12,Cc1cc(C)cc(NC(=O)CSc2nc3c(c(=O)[nH]2)CN(Cc2ccc(F)cc2)CC3)c1,-0.257
13,Cc1ccc(OCc2nnc(SCC(=O)NCc3ccco3)n2C)cc1,0.00137
14,CC(=O)c1ccccc1NC(=O)Cn1c(=O)cnc2ccccc21,-0.0607
15,COC(=O)C1=C(C)N(C)C(C)=C(C(=O)OC)C1c1ccccn1,0.756
16,CCCCC1N2CC3([N+](=O)[O-])CN1CC([N+](=O)[O-])(C2)C3(C)C (configuration not stated),-0.164

row,SMILES,z-score
1,CC1=C(C(N)=O)C(c2ccccc2)n2nc(-c3cccs3)nc2N1 (configuration not stated),0.55
2,Cc1ccc(NCc2ccccc2O)cc1,-0.328
3,CCC(=O)Nc1ccc(NC(=O)c2ccco2)cc1,0.535
4,CC(=O)O/N=C(/C)c1ncc(C(F)(F)F)cc1N1CCOCC1,-0.337
5,O=Cc1ccc2noc(-c3ccc(F)cc3)c2c1,-0.293
6,O=C(Nc1ccccc1Br)C(=O)N1CCCC1,-0.0281
7,CC1=C(C(=O)OCC2CCCO2)C(c2cccc(C(F)(F)F)c2)C2=C(CC(c3ccco3)CC2=O)N1 (configuration not stated),-0.199
8,O=C(O)c1ccc(F)c(S(=O)(=O)Nc2ccccc2)c1,-0.264
9,COc1ccc(CNCCCO)cc1OC,-0.112
10,O=C(Nc1cccc([N+](=O)[O-])c1)c1ccc(-c2ccccc2)cc1,0.358
11,CCn1c(SCC(=O)OC)nnc1-c1ccncc1,0.188
12,CCOC(=O)Cc1csc(NC(=S)NC(=O)C(C)(C)C)n1,1.73
13,O=c1c2ccccc2nc2n1CCCCN2,-0.128
14,O=C(Oc1nsnc1N1CCOCC1)c1ccccc1,-2.61
15,Cc1ccc([N+](=O)[O-])cc1-c1ccc(/C=N/NC(=O)c2cc3c(ccc4ccccc43)o2)o1,-0.0871
16,COc1ccc(OC)c(S(=O)(=O)N2Cc3ccccc3CC2C(=O)O)c1 (configuration not stated),0.299
